The supplement of paper PMC9151546
Repeats are few or missing, and single values can be far off.

How the values were obtained:
CHO-K1 [1] = test: micronucleus frequency (% of nucleated events); higher = more micronuclei (genotoxic)
CHO-K1 [2] = test: relative survival (nuclei to bead ratio vs DMSO control) (% of vehicle control); higher = more surviving cells
Experimental: (§1)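 Flow-cytometric in vitro micronucleus assay (Litron MicroFlow) in CHO-K1 cells in 96-well plates, 19 concentrations (4.5-200 µM, n=1 per concentration). Without S9, cells were exposed for 24 h and sampled at 48 h. With Aroclor 1254-induced rat liver S9, cells were exposed for 3-4 h and sampled at 27-28 h. Read-outs are %MN and %hypodiploid nuclei relative to nucleated events, and relative survival as the nuclei-to-bead ratio versus the 1% DMSO vehicle control (x100).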

CHO-K1 [3] = test: hypodiploid nuclei frequency (% of nucleated events); higher = more hypodiploid events (aneugenic)
Experimental: as §1
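For hypodiploid nuclei frequency (% of nucleated events) in this document: hypodiploid nuclei gated on a flow cytometer with 488 nm excitation after SYTOX Green staining, cultures at 37 °C, positive controls vinblastine without S9 and cyclophosphamide with S9.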
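For micronucleus frequency (% of nucleated events) in this document: cells lysed with nuclei stained by SYTOX Green, then micronucleus-gated events counted against nucleated events by flow cytometry with 488 nm excitation.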
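For relative survival (nuclei to bead ratio vs DMSO control) in this document: Lysed-cell nuclei stained with SYTOX Green and counted against counting beads by flow cytometry at 488 nm excitation, with vinblastine (no S9) and cyclophosphamide (plus S9) as positive controls.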

CCCCCCCCCCO [1-Decanol]
Details | hypodiploid nuclei frequency, CHO-K1 [3] [%] | micronucleus frequency, CHO-K1 [1] [%] | relative survival, CHO-K1 [2]
concentration: 4.5 (µM), S9 metabolic activation: with S9, exposure time: 3-4 hours | 0.24 | 1.38 | 97.5
concentration: 4.5 (µM), S9 metabolic activation: without S9, exposure time: 24 hours | 0.88 | 1.82 | 101
concentration: 5.63 (µM), S9 metabolic activation: with S9, exposure time: 3-4 hours | 0.56 | 1.44 | 86.7
concentration: 5.63 (µM), S9 metabolic activation: without S9, exposure time: 24 hours | 0.92 | 2.18 | 114
concentration: 7.04 (µM), S9 metabolic activation: with S9, exposure time: 3-4 hours | 0.2 | 1.42 | 101
concentration: 7.04 (µM), S9 metabolic activation: without S9, exposure time: 24 hours | 0.8 | 1.72 | 95.6
concentration: 8.8 (µM), S9 metabolic activation: with S9, exposure time: 3-4 hours | 0.24 | 1.22 | 132
concentration: 8.8 (µM), S9 metabolic activation: without S9, exposure time: 24 hours | 0.7 | 1.82 | 124
concentration: 11 (µM), S9 metabolic activation: with S9, exposure time: 3-4 hours | 0.24 | 1.52 | 84
concentration: 11 (µM), S9 metabolic activation: without S9, exposure time: 24 hours | 0.78 | 2.44 | 128
concentration: 13.7 (µM), S9 metabolic activation: with S9, exposure time: 3-4 hours | 0.22 | 1.32 | 134
concentration: 13.7 (µM), S9 metabolic activation: without S9, exposure time: 24 hours | 0.44 | 2.28 | 139
concentration: 17.2 (µM), S9 metabolic activation: with S9, exposure time: 3-4 hours | 0.24 | 1.12 | 117
concentration: 17.2 (µM), S9 metabolic activation: without S9, exposure time: 24 hours | 0.54 | 2.3 | 149
concentration: 21.5 (µM), S9 metabolic activation: with S9, exposure time: 3-4 hours | 0.32 | 0.98 | 122
concentration: 21.5 (µM), S9 metabolic activation: without S9, exposure time: 24 hours | 0.9 | 2.42 | 130
concentration: 26.8 (µM), S9 metabolic activation: with S9, exposure time: 3-4 hours | 0.12 | 1.1 | 115
concentration: 26.8 (µM), S9 metabolic activation: without S9, exposure time: 24 hours | 0.54 | 1.48 | 119
concentration: 33.6 (µM), S9 metabolic activation: with S9, exposure time: 3-4 hours | 0.36 | 1.38 | 112
concentration: 33.6 (µM), S9 metabolic activation: without S9, exposure time: 24 hours | 0.74 | 1.64 | 130
concentration: 41.9 (µM), S9 metabolic activation: with S9, exposure time: 3-4 hours | 0.18 | 1.5 | 102
concentration: 41.9 (µM), S9 metabolic activation: without S9, exposure time: 24 hours | 0.98 | 2.26 | 115
concentration: 52.4 (µM), S9 metabolic activation: with S9, exposure time: 3-4 hours | 0.2 | 1.5 | 118
concentration: 52.4 (µM), S9 metabolic activation: without S9, exposure time: 24 hours | 0.7 | 2.14 | 124
concentration: 65.5 (µM), S9 metabolic activation: with S9, exposure time: 3-4 hours | 0.22 | 1.42 | 112
concentration: 65.5 (µM), S9 metabolic activation: without S9, exposure time: 24 hours | 1.08 | 2.52 | 120
concentration: 81.9 (µM), S9 metabolic activation: with S9, exposure time: 3-4 hours | 0.2 | 1.18 | 121
concentration: 81.9 (µM), S9 metabolic activation: without S9, exposure time: 24 hours | 0.9 | 1.94 | 134
concentration: 102 (µM), S9 metabolic activation: with S9, exposure time: 3-4 hours | 0.2 | 1.06 | 125
concentration: 102 (µM), S9 metabolic activation: without S9, exposure time: 24 hours | 0.96 | 1.88 | 112
concentration: 128 (µM), S9 metabolic activation: with S9, exposure time: 3-4 hours | 0.1 | 1.06 | 140
concentration: 128 (µM), S9 metabolic activation: without S9, exposure time: 24 hours | 1.22 | 2.58 | 110
concentration: 160 (µM), S9 metabolic activation: with S9, exposure time: 3-4 hours | 0.3 | 1.26 | 122
concentration: 160 (µM), S9 metabolic activation: without S9, exposure time: 24 hours | 1.04 | 2.76 | 99.2
concentration: 200 (µM), S9 metabolic activation: with S9, exposure time: 3-4 hours | 0.28 | 0.6 | 107
concentration: 200 (µM), S9 metabolic activation: without S9, exposure time: 24 hours | 1.46 | 2.56 | 140

c1ccc2occc2c1 [2,3-Benzofuran]
Details | hypodiploid nuclei frequency, CHO-K1 [3] [%] | micronucleus frequency, CHO-K1 [1] [%] | relative survival, CHO-K1 [2]
concentration: 4.55 (µM), S9 metabolic activation: with S9, exposure time: 3-4 hours | 0.44 | 2.18 | 138
concentration: 4.55 (µM), S9 metabolic activation: without S9, exposure time: 24 hours | 0.48 | 1.88 | 75.7
concentration: 5.69 (µM), S9 metabolic activation: with S9, exposure time: 3-4 hours | 0.3 | 1.78 | 101
concentration: 5.69 (µM), S9 metabolic activation: without S9, exposure time: 24 hours | 0.52 | 1.24 | 79.7
concentration: 7.11 (µM), S9 metabolic activation: with S9, exposure time: 3-4 hours | 0.28 | 1.5 | 102
concentration: 7.11 (µM), S9 metabolic activation: without S9, exposure time: 24 hours | 0.62 | 1.38 | 79.4
concentration: 8.88 (µM), S9 metabolic activation: with S9, exposure time: 3-4 hours | 0.12 | 1.64 | 93.1
concentration: 8.88 (µM), S9 metabolic activation: without S9, exposure time: 24 hours | 0.6 | 1.68 | 93.7
concentration: 11.1 (µM), S9 metabolic activation: with S9, exposure time: 3-4 hours | 0.22 | 1.86 | 99.6
concentration: 11.1 (µM), S9 metabolic activation: without S9, exposure time: 24 hours | 0.6 | 1.38 | 82.2
concentration: 13.9 (µM), S9 metabolic activation: with S9, exposure time: 3-4 hours | 0.22 | 1.88 | 114
concentration: 13.9 (µM), S9 metabolic activation: without S9, exposure time: 24 hours | 0.56 | 1.34 | 90.8
concentration: 17.4 (µM), S9 metabolic activation: with S9, exposure time: 3-4 hours | 0.26 | 2.42 | 103
concentration: 17.4 (µM), S9 metabolic activation: without S9, exposure time: 24 hours | 0.32 | 1.54 | 81.6
concentration: 21.7 (µM), S9 metabolic activation: with S9, exposure time: 3-4 hours | 0.36 | 3.08 | 113
concentration: 21.7 (µM), S9 metabolic activation: without S9, exposure time: 24 hours | 0.54 | 1.46 | 83.5
concentration: 27.1 (µM), S9 metabolic activation: with S9, exposure time: 3-4 hours | 2.56 | 0.9 | 138
concentration: 27.1 (µM), S9 metabolic activation: without S9, exposure time: 24 hours | 0.8 | 1.36 | 88.9
concentration: 33.9 (µM), S9 metabolic activation: with S9, exposure time: 3-4 hours | 0.26 | 1.64 | 198
concentration: 33.9 (µM), S9 metabolic activation: without S9, exposure time: 24 hours | 0.66 | 1.5 | 100
concentration: 42.4 (µM), S9 metabolic activation: with S9, exposure time: 3-4 hours | 0.16 | 1.08 | 158
concentration: 42.4 (µM), S9 metabolic activation: without S9, exposure time: 24 hours | 0.92 | 1.52 | 93.7
concentration: 53 (µM), S9 metabolic activation: with S9, exposure time: 3-4 hours | 0.18 | 1.76 | 136
concentration: 53 (µM), S9 metabolic activation: without S9, exposure time: 24 hours | 0.72 | 1.6 | 90
concentration: 66.2 (µM), S9 metabolic activation: with S9, exposure time: 3-4 hours | 0.14 | 1.72 | 126
concentration: 66.2 (µM), S9 metabolic activation: without S9, exposure time: 24 hours | 0.76 | 1.26 | 87.8
concentration: 82.7 (µM), S9 metabolic activation: with S9, exposure time: 3-4 hours | 0.28 | 1.18 | 106
concentration: 82.7 (µM), S9 metabolic activation: without S9, exposure time: 24 hours | 0.62 | 1.66 | 85.2
concentration: 103 (µM), S9 metabolic activation: with S9, exposure time: 3-4 hours | 0.12 | 1.4 | 137
concentration: 103 (µM), S9 metabolic activation: without S9, exposure time: 24 hours | 0.68 | 1.52 | 81.9
concentration: 129 (µM), S9 metabolic activation: with S9, exposure time: 3-4 hours | 0.34 | 1.76 | 147
concentration: 129 (µM), S9 metabolic activation: without S9, exposure time: 24 hours | 0.66 | 1.54 | 93.2
concentration: 162 (µM), S9 metabolic activation: with S9, exposure time: 3-4 hours | 0.26 | 2.06 | 120
concentration: 162 (µM), S9 metabolic activation: without S9, exposure time: 24 hours | 1.24 | 1.92 | 92
concentration: 202 (µM), S9 metabolic activation: with S9, exposure time: 3-4 hours | 0.24 | 1.94 | 127
concentration: 202 (µM), S9 metabolic activation: without S9, exposure time: 24 hours | 0.86 | 2.08 | 78.5
